Test results published in PubChem BioAssay AID1963576 (National Center for Advancing Translational Sciences (NCATS), 2024).
Hit rate of the full screen: of about 46,000 compounds, about 60 (0.1%) were called active. Roughly 3% stayed inconclusive and do not appear here. Calls come from the whole dose curve; as a rule, active = well fitted inhibition curve with a large enough effect; inconclusive = small, poorly fitted or top-dose-only effect; inactive = no such curve, though single readings can be large or run the other way. The list shows a part of the results.

Test: Primary qHTS assay for Inhibitors of ovarian cancer metastasis using an organotypic tumor microenvironment (TME) model.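 For activity change, negative = inhibition: plate controls were DMSO wells for no effect and tomatine positive control wells for full effect.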 Note: nearly all actives have a fitted effect of over 65% in size.
Conditions: SKOV3ip1-GFP adhesion/invasion on 3D omental model, fluorescence; series mostly up to 45.8 µM; activity change, negative = inhibition: at the top concentration
Method in brief: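 A 3D layer of primary human omental fibroblasts, mesothelial cells, fibronectin and collagen I, grown 48 hr, received SKOV3ip1-GFP cells in serum-free medium plus compounds at 0.36-46 umol/L. After 2 hr RT and 16 hr 37 C, fixed adherent GFP cells were counted; normalized to DMSO and tomatine.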

Activity change, negative = inhibition, inactive:
CCOc1cccc2cc(-c3cn4c(n3)sc3ccccc34)c(=O)oc12 6.97%
COc1ccc(-c2[nH]ncc2C(=O)NCc2cccc(OC)c2)cc1 19%
Cc1ccc(CNC(=O)CSc2nnc(C)c3c(C)n(-c4ccccc4)nc23)cc1 -16.3%
CCN(C(=O)CCNC(=O)Cn1cnc2ccccc2c1=O)c1cc(OC)ccc1OC 9.09%
COc1ccc(NC(=O)CSC2=Nc3ccccc3N=C(c3ccc(F)cc3)C2)cc1OC 9.95%
CN(C)c1ccc(CNC(=O)CN2C(=O)CSc3ccc(S(=O)(=O)N4CCCC4)cc32)cc1 -0.132%
CN(C)c1cccc(C(=O)Nc2nc3ccc(S(=O)(=O)N4CCCC4)cc3s2)c1 -20.5%
O=C(Nc1ccc(O)c(-c2nc3ccccc3o2)c1)c1ccc(Br)cc1 -12.7%
CCSc1ncc(Cl)c(C(=O)Nc2nc3ccc(Cl)cc3s2)n1 -7.86%
CN(C)c1ccc(NC(=O)Cn2nnc3sc4c(c3c2=O)CCC(C(C)(C)C)C4)cc1 (stereo unspecified) -4.78%
O=S(=O)(c1ccc(Cl)cc1)c1nnn2c1nc(NC1CCCCC1)c1sccc12 -0.279%
Cc1cc(NC(=O)CCc2nc3cccnc3n2Cc2cccs2)ccc1Br 2.19%
COc1ccnc2[nH]cc(C(=O)C(=O)N3CCN(C(=O)c4ccccc4)C[C@@H]3C)c12 -8.23%
Cc1cccc(NC(=O)c2oc3ccccc3c2NC(=O)c2cc(=O)c3ccc(C)cc3o2)c1 -2.79%
CC(=O)Nc1ccc(NC(=O)C2CCN(S(=O)(=O)c3ccc4c(c3)CCCC(=O)N4)CC2)cc1 5.82%
CCc1ccccc1NC(=O)CSc1nnc(-c2ccc(OC)cc2)s1 12.1%
Cc1ccc(NS(=O)(=O)c2cc(-c3cc(C)no3)ccc2C)c(Cl)c1 1.04%
CCOc1ccc2nc(N3CCCC(C(=O)Nc4cc(C)ccc4C)C3)sc2c1 (stereo unspecified) 7.69%
Cc1ccc(NC(=O)Nc2c[nH]c(=O)[nH]c2=O)c(Cl)c1 -0.319%
Cc1nc2ccc(CN(C)c3ccc(C(=O)N[C@@H](CCC(=O)O)C(=O)O)s3)cc2c(=O)[nH]1 -1.81%
CCOc1cc(C2c3c(oc4ccccc4c3=O)C(=O)N2Cc2ccc(OC)cc2)ccc1O (stereo unspecified) -10.2%
Cc1ccc(OCC(=O)NCC(c2ccc(Cl)cc2)N2CCOCC2)cc1C (stereo unspecified) 9.28%
Cc1ccn2c(=O)cc(COc3ccc(NC(=O)COc4ccc(C)c(C)c4)cc3)nc2c1 -9.79%
COCCNC(=O)CCCn1c(SCC(=O)c2ccc(Br)cc2)nc2c(sc3ccccc32)c1=O 1.86%
COc1ccc(C)cc1NC(=O)c1cnc2ccc(C)cn2c1=O -10.2%
Cc1cc2c(cc3c(SCc4ccc(Cl)cc4)nncn32)o1 0.998%
O=c1c2ccccc2n(Cc2c(F)cccc2Cl)c(=O)n1CCc1ccccc1 8.48%
CCOC(=O)c1c(C)[nH]c(C)c1S(=O)(=O)N(C)CC(=O)NCc1ccc(Cl)cc1 -12.5%
COc1ccc(-n2cnc3cc(C(=O)NC4CCCCCC4)ccc32)cc1 -4.71%
Cc1ccc(C(=O)c2oc3ccccc3c2NC(=O)Cc2coc3ccc(C)cc23)cc1 0.841%
O=C(O)c1ccc2nc(-c3cc4cc(Cl)ccc4oc3=O)[nH]c2c1 5.74%
O=C(CCCCn1c(=O)c2ccccc2n(Cc2cccc(F)c2)c1=O)NCc1ccc2c(c1)OCO2 14.1%
Cc1cccc(Nc2c(-c3ccsc3)nc3nc(C)cc(C)n23)c1 -7.22%
O=C(CSc1nccn1-c1cccc(Cl)c1)Nc1cccc2ccccc12 -7.78%
CCOc1ccc(CCNC(=O)CCCc2nnc3n(CC)c(=O)c4sccc4n23)cc1 0.741%
Cc1ccc2onc(CNC(=O)NCc3ccc(Cl)cc3)c2c1 -1.01%
COc1ccc(C)cc1-n1cnc2cc(C(=O)NC3CCCCCC3)ccc21 -16.2%
Cn1c(SCC(=O)Nc2nc3ccccc3s2)ncc(C(=O)Nc2ccccc2)c1=O -11.6%
COc1cccc(CNC(=O)CN2C(=O)N(c3ccc(C)cc3C)S(=O)(=O)c3ccccc32)c1OC 50.5%
CCc1nc(-c2cc(S(=O)(=O)N3CCN(c4ccccc4)CC3)ccc2OC)no1 10.3%
CNC(=O)[C@H](Cc1ccccc1)NC(=O)[C@H](CC(C)C)[C@H](CSc1cccs1)C(=O)NO -10.5%
Cn1c(=O)c2c(-c3ccc(Br)cc3)n(Cc3ccc(F)cc3)cc2n(C)c1=O -9.02%
O=C(O)c1c(-c2ccccc2)oc2ccc(OCc3c(F)cccc3Cl)cc12 -13.1%
Cc1ccc(/C=C(\C#N)C(=O)Nc2cccc(Cl)c2)o1 -4.28%
COc1ccc(CCNC(=O)C2CCN(Cc3nc(-c4ccc(OC)c(OC)c4)oc3C)CC2)cc1OC 1.25%
CCN(CC)C(=O)Cn1c(=O)n(CC2CCC(C(=O)NC)CC2)c(=O)c2sccc21 (stereo unspecified) -0.325%

outcome, inactive:
O=C(CCn1c(=O)c2sccc2n(CC(=O)Nc2ccccc2)c1=O)NCc1ccccc1Cl
COc1cccc(CNCc2cccn2-c2nnc(N3CCN(c4ccccc4)CC3)s2)c1
CC1CCN(S(=O)(=O)c2ccc3c(ccc(=O)n3CC(=O)NCc3ccccc3Cl)c2)CC1
Cc1ccc2c(c1)c1c(c(=O)n(-c3ccccc3C)c(=O)n1CC(=O)c1ccc(Cl)cc1)n2C
CCC1CN(C(=O)N2CCC(C(=O)NCc3cc(OC)c(OC)c(OC)c3)CC2)c2ccccc2O1 (stereo unspecified)
Cc1ccc(-n2c(=O)c3c(cnn3C)n(Cc3ccc(Cl)cc3)c2=O)cc1
CCOc1ccc(CNC(=O)c2ccc3[nH]c(C)c(C)c3c2)cc1OC
CCc1ccc(NC(=O)N(Cc2c[nH]c3ccccc23)C2CCCCC2)cc1
Cc1ccc(-c2nc3c4ccccc4n(CC(=O)NCc4ccc(F)cc4)c(=O)n3n2)cc1
CCSc1ncc(Cl)c(C(=O)Nc2c(C(=O)Nc3ccccc3)oc3ccccc23)n1
O=C1COc2cc(S(=O)(=O)CCC(=O)NC3CCCCC3)c(Cl)cc2N1
CCc1nn(CC(=O)NCCCN(CC)CC)c(=O)c2cc3occc3n12
COc1ccc(-c2nc3cc(C)ccn3c2NC(=O)c2cccc(F)c2)cc1
O=C(NCCn1cc(SCc2ccc(Br)cc2)c2ccccc21)c1cccs1
CCCC(=O)N1CCc2cc(OC)c(OC)cc2C1COc1ccc(C(=O)OC)cc1 (stereo unspecified)
